Experimental data: PubChem BioAssay AID686979 (National Center for Advancing Translational Sciences (NCATS), 2013)
About 50,000 (12%) of roughly 420,000 compounds were called active. This list was built around the results that the source calls inconclusive (neither active nor inactive); the mix of calls is not that of the screen. Calls follow the shape of the dose curve; as a rule, active = well fitted inhibition curve with a large enough effect; inconclusive = small, poorly fitted or top-dose-only effect; inactive = flat fitted curve, though single readings scatter. Potencies of inconclusive entries are left out as doubtful fits.

assay: qHTS for Inhibitors of human tyrosyl-DNA phosphodiesterase 1 (TDP1): qHTS in cells in presence of CPT; conditions: chicken DT40 Tdp1-/-;hTDP1 cells + 20 nM CPT, ATP luminescence, 48 h; activity change, negative = growth inhibition: at 46.2 µM (top of the series) unless noted; also: nearly all actives have a fitted effect of over 55% in size
Outline: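 Cell growth measured by CellTiter-Glo luminescence after a minimum 48 h, 37 C compound exposure with 20 nM CPT in Tdp1-knockout DT40 cells stably expressing hTDP1, seeded 400/well; qHTS titration format.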
% is scaled to controls: 0 for no effect and ±100 for the full control effect; potency is read from the fitted curve at half-maximal effect; tags tell the direction and shape of the fitted curve.

Compound | Potency | activity change, negative = growth inhibition
C=CCOc1ccc(/C=C/C(=O)OCC(=O)NCC2CCCO2)cc1 (centres undefined) | inactive | –
COc1ccc(-c2c(C)sc(NC(=O)c3ccnn3C)c2C#N)cc1 | inactive | –
O=C(O)CNC(=O)/C(=C\c1cccc([N+](=O)[O-])c1)NC(=O)c1ccco1 | inactive | –
O=C(NNC(=O)c1cc(Cl)ccc1O)c1cccs1 | inconclusive [inhibitor, single point] | –
COCCCN1C(=O)C(CC(=O)NCC2CCCCC2)CC(C(=O)N(C(C)C)C(C)C)=C1C (centres undefined) | inconclusive [inhibitor, partial curve] | –
CCc1ccc(-n2c(N3CCN(c4cccc(C)c4C)CC3)nc3ccccc3c2=O)cc1 | inconclusive [inhibitor, single point] | –
CC(=O)Cc1nsc(NC(=O)c2cccs2)n1 | inconclusive [inhibitor, partial curve, poor fit] | –
CSc1ncccc1C(=O)OCC(=O)c1ccc(C)s1 | inactive | –
Cc1cccc(C(=O)NCC(=O)N2CCN(S(=O)(=O)c3ccc4c(c3)OCCO4)CC2)c1 | inactive | –
O=C(O)CCC(=O)N1CCN(c2nc(-c3ccccc3)c3ccccc3n2)CC1 | inactive | –
CN1CCCC1CCNC1C2CC3CC(C2)CC1C3 (centres undefined) | active: 8.2 µM | –
Cc1nc2ccn(Cc3cccnc3)c(=O)c2cc1C(=O)N1CCN(c2ccccc2)CC1 | inactive | –
COc1ccc(NC(=O)c2cc([N+](=O)[O-])nn2Cc2ccccc2)c(C)c1 | inactive | –
CCc1c(C#N)c(SCCC(=O)Nc2cccc(OC)c2)nc2c1C(=O)CC(C)(C)C2 | inconclusive [inhibitor, single point] | –
COc1ccccc1NC(=O)COC(=O)Cn1cnc2c1c(=O)n(C)c(=O)n2C | – | inconclusive: -31.1% [inhibitor]
CCc1ccc2nc(/N=C(\N)NC(=O)c3ccccc3)nc(C)c2c1 | inconclusive [inhibitor, single point] | –
CCOC(=O)[C@H]1[C@H]2COc3ccc(Br)cc3[C@@H]2N2C(=O)c3ccc(Cl)cc3NC(=O)[C@@]12C | active: 18.4 µM | –
COc1ccccc1C(=O)Nc1nc(-c2ccc(Br)cc2)ns1 | inconclusive [inhibitor, single point] | –
CCN=C1S/C(=C\c2sccc2C)C(=O)N1CC | inconclusive [inhibitor, partial curve] | –
COc1ccc(Cl)cc1C(=O)Nc1ccc(NC(C)=O)cc1 | inactive | –
CCN1CCN(C(=O)c2cc3c(s2)-c2c(C)cccc2OC3)CC1 | inconclusive [inhibitor, single point] | –
CC(=O)Nc1nc(C)c(C(C)=O)s1 | active: 14.6 µM | –
CC(=O)Nc1ccccc1-c1nc2ccccc2n(C(C)C(=O)c2ccc(C)c(C)c2)c1=O (centres undefined) | inconclusive [inhibitor, single point] | –

Compound | Potency | activity change, negative = growth inhibition
CCOC(=O)c1c(C)n(C)c2ccc(OCC(O)CN3CCC(C)CC3)cc12 (centres undefined) | inconclusive [inhibitor, partial curve] | –
CCCCN1C[C@H](C)[C@@H](CC(=O)NC)C1=O | inactive | –
CCc1ccc(CNC(=O)CCc2cn(C)c3ccccc23)cc1 | inconclusive [inhibitor, single point] | –
CCOC(=O)[C@]12CCC=C1N(Cc1cccc3ccccc13)C(=O)[C@H](CC(=O)NCCCCc1ccccc1)C2 | active: 23.1 µM | –
NC[C@H]1O[C@H](O[C@H]2[C@H](O[C@@H]3O[C@H](CO)[C@@H](O)[C@H]3O)C(O)[C@H](N)C[C@@H]2N)[C@H](N)[C@@H](O)[C@@H]1O (some centres undefined) | inactive | –
Cc1cccc(NC(=O)COc2cccc3c2CCN(C)C3=O)c1 | inconclusive [inhibitor, full curve, poor fit] | –
COc1c(Br)cc(Br)cc1/C=N/n1c(C)nnc1C | inconclusive [inhibitor, single point] | –
O[C@@H]1CN(CC2CCCCC2)[C@@H](c2ccc(Cl)cc2)C[C@H]1n1cc(C2CC2)nn1 | inconclusive [inhibitor, single point] | –
Cc1ccc(Cc2nnc(SCC(=O)Nc3c(C)cccc3C)[nH]c2=O)cc1 | inconclusive [inhibitor, full curve] | –
Cc1nnsc1C(=O)N1CCN(c2cc(C(F)(F)F)ccn2)CC1 | inconclusive [inhibitor, single point] | –
NS(=O)(=O)c1ccc(NC(=S)N2CCN(Cc3ccc(Cl)c(Cl)c3)CC2)cc1 | inconclusive [inhibitor, partial curve] | –
COc1cc(C2C(=O)N(C3CCC(C)CC3)CC(=O)N2CCc2ccc(Cl)cc2)ccc1OC(C)C (centres undefined) | inactive | –
Cc1ccc(NC(=O)CN(C)S(=O)(=O)c2cccc3nsnc23)c(C)c1 | inactive | –
CCOC(=O)c1cc(C#N)c(Oc2ccccc2OC)nc1-c1ccccc1 | inconclusive [inhibitor, single point] | –
Cc1ccc2c(n1)CC(C)(C)C/C2=N\O | inconclusive [inhibitor, full curve] | –
Cc1ccc(Nc2cc(-c3ccccc3)nc(C)n2)cc1 | inconclusive [inhibitor, single point] | –
Cc1[nH][nH]c(=O)c1C(c1c(C)[nH][nH]c1=O)c1cn(Cc2ccccc2Cl)c2ccccc12 | active: 5.8 µM | –
Clc1ccc2c(NCc3ccccn3)ccnc2c1 | inconclusive [inhibitor, single point] | –
CN(C)S(=O)(=O)Oc1cccc(C(=O)Nc2ccc(Cl)cc2)c1 | active: 8.2 µM | –
CC1CN(C)C(C)c2c1oc1ccc(N)cc21 (centres undefined) | inconclusive [inhibitor, partial curve] | –
CCOC(=O)CCCCCC(=O)Nc1ccc2c(c1)CC(=O)N([C@H](C)CO)C[C@@H](C)[C@H](CN(C)Cc1ccc3c(c1)OCO3)O2 | inconclusive [inhibitor, single point] | –
CC(=O)Nc1c(I)c(C(=O)N[C@H]2C(O)O[C@H](CO)[C@@H](O)[C@@H]2O)c(I)c(N(C)C(C)=O)c1I (some centres undefined) | inactive | –
COc1ccc(CNC(=O)C(=O)NCC(c2cccnc2)N2CCN(c3ccccc3F)CC2)cc1 (centres undefined) | active: 11.6 µM | –

Compound | Potency | activity change, negative = growth inhibition
Cc1ccccc1C1=NC(C(F)(F)F)(C(F)(F)F)c2c(n(C)c(=O)n(C)c2=O)N1 | inconclusive [inhibitor, single point] | –
CN(c1cccc(NS(=O)(=O)c2cccs2)c1)S(C)(=O)=O | inactive | –
CCc1ccc(C2C(C#N)=C(N)SC(N)=C2C#N)cc1 | inconclusive [inhibitor, single point] | –
CCC1=C(OC(=O)N(CC)CC)N2C(=O)OC(=NCCc3c[nH]c4ccccc34)[C@]2(Cc2ccccc2)[C@H]2C1=CC[C@H]1C(=O)N(CC(=O)OC)C(=O)[C@H]12 | inconclusive [inhibitor, single point] | –
C[C@H]1CN=C(N(C)C)N1CCC1CCCCC1 | inconclusive [inhibitor, single point] | –
COc1cccc(-c2cnc(C(O)c3ccc(SC)cc3)[nH]2)c1 (centres undefined) | inconclusive [inhibitor, single point] | –
Cc1nc2ccc(NC(=S)N3CCN(c4ccccn4)CC3)cc2nc1C | inactive | –
CC(=O)O[C@@]1(C(C)=O)CCC2C3C=C(Cl)C4=CC(=O)C5CC5[C@@]4(C)C3CC[C@]21C (some centres undefined) | active: 20.6 µM | –
CCOc1ccc(C(=O)Nc2cccc3ncccc23)cc1Br | – | inconclusive: -16.4% [inhibitor]
COc1ccc(/C=C2\SC(=S)N(C(C)C(=O)NC3C=CS(=O)(=O)C3)C2=O)cc1 (centres undefined) | inconclusive [inhibitor, single point] | –
NC(=O)NC(c1ccc(Cl)cc1)c1ccccc1Cl (centres undefined) | inconclusive [inhibitor, partial curve] | –
CC(=O)N1CCC(C(=O)OCc2ccc(Cl)cc2)(c2ccccc2)CC1 | inconclusive [inhibitor, partial curve, poor fit] | –
O=C(CCS(=O)(=O)c1ccccc1)N(CCCN1CCOCC1)c1nc2ccccc2s1 | active: 5.17 µM | –
Cc1ccccc1C(=O)N1CCN(C(c2ccccc2)c2ccccc2)CC1 | inconclusive [inhibitor, single point] | –
Cc1cc(C)n(-c2nc(NCCCN(C)C)c3c4c(sc3n2)CCCC4)n1 | inconclusive [inhibitor, single point] | –
CC(C)[C@@H](C(=O)N[C@@H](C(=O)O)c1ccccc1)N1C(=O)N2CCc3c([nH]c4ccccc34)[C@@]2(C)C1=O | inactive | –
Cc1ccc2c(c1)N(C(=O)CCC(=O)NCCCN1CC(C)CC(C)C1)CCO2 (centres undefined) | inconclusive [inhibitor, partial curve] | –
Cc1ccc(NC(=O)[C@H](Cc2ccccc2)N2Cc3ccccc3C2=O)cc1 | inactive | –
O=C(NCCN1CCC(n2c(=O)[nH]c3ccccc32)CC1)c1ccc(F)cc1 | inconclusive [inhibitor, partial curve] | –
Cc1noc(C)c1S(=O)(=O)NCCc1csc2nc(-c3ccc(F)cc3)nn12 | active: 18.4 µM | –
CCC1=Nc2cc(C(=O)NCCN3CCOCC3)ccc2Sc2ccc(C)cc21 | inactive | –
CCOc1ccccc1CN1CCN(Cc2ccc3cccc(OC)c3n2)CC1CCO (centres undefined) | inconclusive [inhibitor, partial curve] | –
CC(C)C(=O)Nc1ncc(Cc2ccc(Cl)cc2)s1 | inconclusive [inhibitor, partial curve] | –
